Assay results reported in the supplement of paper PMC9513381.
Recombinant human monoclonal antibodies (heavy:light variable regions). ELISA EC50 on the named antigen, from 10 µg/ml down; IC50 / IC90 against spike pseudovirus on 293T-ACE2 cells, 48 h; lower = stronger. Calls: IC50 above 1,000 ng/ml = non-neutralizing; EC50 above 1,000 ng/ml = non-binder. The source prints 1000 for neutralization that was not reached; it is given as >1000 ng/ml. Only binders of the Wuhan-Hu-1 domain have neutralization values.

B1: B1068 (protein)
chain 1: QVQLVQSGAEVKKPGASVKVSCKTSGYTLSNYGLSWVRQAPGQGLEWMGWISAHDGDTKYAQKFQGRVTMTTDTSTSTAYMELRSLRSDDTAMYYCAREGGLTTMTLSDAFDIWGQGTMVIVSS
chain 2: DIVMTQSPDSLAVSLGERATINCKSSQSVLYTSNNQDYLAWYQQKPGQPPKLLIYWASARQSGVPDRFSGSGSGTAFTLTISSLQAEDVAVYYCQQYFQTPLTFGGGTKVEIK
B2: B1061 (protein)
chain 1: EVQLVQSGPEVKKPGESLKISCRASGYSFTNYWIGWVRQIPGKGLEWLGIIYPGDSDTTYSPSFQDHVTLSADNSISTAYLQWNSLKASDTAMYYCARLAVVIDLSVFDFWGQGTLVTVS
chain 2: DIQLTQSPSFLSASVGDRVTITCRASQGISKYLGWYQQKPGKAPKLLIYGASTLHSGVPSRFSGSGSGTEFTLTIRSLQPEDFATYYCQHLNSYLITFGQGTRLEIK
B3: B2000 (protein)
chain 1: EVQLVQSGAEVKKPGESLKISCKGFGYSFSNYWIAWVRQMPGKGLEWMGIIYPEDSDTRDSPSSQGQVTMSVDKSTSTAYLQWSSLKASDTAMYYCVRRSGHLIWHGFDIWGQGTMVTVSS
chain 2: DIQLTQSPSSLSASVGDRVTVTCRASQGINYFLAWFQQKPGKAPKSLIYAASSLQSGVPSRFSGSGSGTDFTLTISSLQPEDFATYFCLQYYSYPWTFGPGTKVEIK
B4: B1063 (protein)
chain 1: QVQLQESGPGLVKPSGTLSLTCAVSGGSIRSSNWWSWVRQPPGKGLEWIGEIYLSGSTDYNPSLKSRVTISVDKSKNRLSLNLTSVTAADTAVYYCATMGNTDMVPKNYYMDVWGKGTTVTVSS
chain 2: EIVLTQSPATLSLSPGERATLSCRASQTVSSYLAWYQQKPGQAPRLLIYDTSARATGIPARFSGSGSGTDFTLTISSLEPEDFAVYYCQQRSDWPPTFGQGTRLEI
B5: B2002 (protein)
chain 1: EVQLLESGGALAQPGGSLRLSCAASGFPFSTYAMSWVRQAPGKGLEWVSGISSRGGRTYNADSVKGRFTISRDNSKNTLYLQMNSLRAEDTAVYYCARDEILHGDNPEYFQHWGQGTLVTVSS
chain 2: DIQMTQSPSTLSASVGDRVTITCRASQTINSWLAWYQQKPGKAPTLLIYDASSLKSGAPSRFSGSGSGTEFILTISSLQPDDFATYYCQQYHSYSPLTFGGGTKVEIK
B6: B1069 (protein)
chain 1: QVQLVQSGAEVKKPGSSVKVSCKASGGTFSSSSITWVRQAPGQGLEWMGGIIPTLGIANYAQKFQDRLTLIADKSTSTASMELSSLRSDDTAVYYCARVAGYSGYGAAEYFDLWGRGTLVTVSS
chain 2: QSVLTQPPSVSGAPGQRVTISCAGTNSNIGAGYDVHWYQQLPGTAPKLLIYANNNRPSGVPDRFSGSKSGTSASLAITGLQAEDEADYYCQSYDSSLSGSVFGGGTSLTVL
B7: B1065 (protein)
chain 1: QVQLVESGGGLVKPGGSLRLSCAASGFTFSNAWMNWVRQAPGKGLDWVGRIKNRRDGGTTDYAAPVKGRFTISRDDSKNTLYLQMNSLKIEDTAVYYCTTDRGDVSRFLDLFHDAFDVWGQGTMVTVSS
chain 2: DIQMTQSPSSLSASVGDRVTISCRANQSIRYYLNWYQQKPGKAPKLLIYAVSSLHSGVPSRFSGSGSDTDFTLTITSLQPEDFATYYCQQCYTTPHFGGGTKVEIK
B8: B1064 (protein)
chain 1: EVQLLESGGGLVQPGGSLRLSCRASGFTFSNYAMSWVRQAPGKGLECVSGISGSGGFTNYADPVKGRFIISRDDSKNTLYLQMNSLRGEDTAVYFCAKGDWLSPNLNHYYMDLWGKGTTVTVSS
chain 2: DIQMTQSPSTLSASVGDRVTIACRASQSISNWLAWYQQKPGKAPKLLIYKASSLESGVPSRFSGSGSGTEFTLTISGLQPDDFATYYCQQYNSFPLTFGGGTKVDIK
B9: B1060 (protein)
chain 1: QVQLVQSGPEVKKPGTSVKVSCKSSEFTLTPSAVQWVRQARGQRLEWIGWIVVGSGKTDYAGNLRERVTITRDTSTGTVYMEVNSLRSEDTAVYFCAAPHCNRTKCHDGFDMWGQGTMVTVSS
chain 2: EIVLTQSPGTLSLSPGERATLSCRASQSVSSNYLAWYQQKPGQAPRLLIYGASSRATGIPDRFGGSGSGTDFILTISRLEPEDFAVYHCQQYGISPWTFGQGTKVEIK
B10: B1059 (protein)
chain 1: QVQLVESGGGLVKPGGSLRLSCAASGFTFTNYYMTWIRQAPGKGLEWVSYIRSENGNTYYADSVKGRFTISRDNAKNLLYLQMNNLRVEDTAVYYCARDLDTVTLNGIYWYFDLWGRGTLVTVSS
chain 2: DIQMTQSPSSVSASVGDRVTITCRASQGISRSVAWYQQKPGEAPKLLIYAASSLQSGVPSRFSGSGSGTDFTLVISSLQPEDFATYYCQQSNSVYLLSFGGGTKVEIK
B11: B035 (protein)
chain 1: QVQLQESGPGLVKPSETLSVTCAVSGYSISSSYYWGWIRQSPGRGLEWIGSIYHSGTTYYNPSVKSRLTISVDTSTNQFSLTLRSVTAADTAMYYCASNSGQVVIGAFDIWGQGTMVTVSS
chain 2: DIQMTQSPSSLSASVGDRVTITCQASQDISNYLNWYQQKPGKAPKLLIYGASNLETGVPSRFSGSGSGTDFTFTISSLQPEDIATYYCQKYDNVPLTFGGGTKVEIK
B12: B1067 (protein)
chain 1: QVQLVESGGGLVQPGGSLRLSCAASGFPFSQYDMHWVRQTTTKGLEWVAVIGTAGEAYYPDSVKGRITISRDNARNSLYLQINSLRAEDTAVYYCVRDVGQVWPYFDSWGQGILVTVSS
chain 2: DIQMTQSPSSLSATVGDRVTITCRASQTIGNYLNWYQQKPGKAPKLLIYAASSLQSGVPSRFSGSGSGTDFTLTISSLQAEDFATYYCQQSYTTLALTFGGGTKVEIK
B13: B1066 (protein)
chain 1: QVQLVESGGGSVKPGGSLRLSCAGSGLSFSRAWMNWVRQAPGKGLEWVGRIKSKNDGAAIDYAAPVKGRFTISRDDSRSTLYLQMDSLKTEDTAVYYCTTDLTSITMVEHDAFDIWGQGTMVTVSS
chain 2: DIQMTQSPSSLSASVGDRVTITCRAGQSVSTFLNWYQQRPGKAPKLLIYAASILQSGVPSRFSGSGSGTDFTLTISNLQPEDFATYYCQQSYGPLGSFGQGTKLEIK
B14: B1062 (protein)
chain 1: EVQLVQSGAEVKKPGESLKISCKGSGYTFANYYIGWVRQLPGKGLDWLGIIYPGDSETIYSPSFQGPATISADKSISTAYLQWSSLRASDTAMYYCARLGVDIDVLPFDYWAQGTLVTVSS
chain 2: DIQLTQSPSFLSASVGDRVTITCRASQDISSYLAWYQQKPGKAPKLLIYAASTLHSGVPSRFSGSGSGTEFTLTINSLQPEDFATYYCQQLNSYSFTFGPGTKVDIK

target: SARS-CoV-2 Wuhan-Hu-1 spike pseudovirus; test: pseudovirus neutralization IC50; higher = weaker neutralization
Description: (§1)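 Single-round luciferase reporter pseudovirus mixed with antibody dilutions and put on 293T-ACE2 cells for 48 h; signal relative to no-antibody wells, four-parameter fit.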

| Binder | pseudovirus neutralization IC50 [ng/mL] |
| --- | --- |
| B1 | 45.8 |
| B2 | 2.86 |
| B3 | 5.14 |
| B4 | 4.45 |
| B5 | 16.3 |
| B6 | 76.3 |
| B7 | 6.49 |
| B8 | 7.63 |
| B9 | 4.66 |
| B10 | 14.4 |
| B11 | > 1000 |
| B12 | > 1000 |
| B13 | 7.44 |
| B14 | 3.82 |

target: SARS-CoV-2 Wuhan-Hu-1 spike pseudovirus; test: pseudovirus neutralization IC90; higher = weaker neutralization
Description: as §1

| Binder | pseudovirus neutralization IC90 [ng/mL] |
| --- | --- |
| B1 | 536 |
| B2 | 8.72 |
| B3 | 26.4 |
| B4 | 16.7 |
| B5 | 53.1 |
| B6 | > 1000 |
| B7 | 20.3 |
| B8 | 34.3 |
| B9 | 16.6 |
| B10 | 49.9 |
| B11 | > 1000 |
| B12 | > 1000 |
| B13 | 43.7 |
| B14 | 19.6 |

target: SARS-CoV-2 Delta (B.1.617.2) spike RBD; test: ELISA binding EC50; higher = weaker binding; ELISA of recombinant human antibody on coated antigen, from 10 µg/ml in fourfold dilutions; four-parameter fit.

| Binder | ELISA binding EC50 [ng/mL] |
| --- | --- |
| B1 | 9.61 |
| B2 | 23.8 |
| B3 | 19.1 |
| B4 | 2.39 |
| B5 | 5.89 |
| B6 | 7 |
| B7 | 3.9 |
| B8 | 17.6 |
| B9 | 15.7 |
| B10 | 31.2 |
| B11 | > 1000 |
| B12 | 6.3 |
| B13 | 2.52 |
| B14 | 14.8 |

target: SARS-CoV-2 Omicron BA.1 spike protein; test: as above

| Binder | ELISA binding EC50 [ng/mL] |
| --- | --- |
| B1 | 40.6 |
| B2 | 9.57 |
| B3 | 38.1 |
| B4 | 5.42 |
| B5 | 11.9 |
| B6 | 2.94 |
| B7 | 10.7 |
| B8 | > 1000 |
| B9 | 218 |
| B10 | 10.3 |
| B11 | > 1000 |
| B12 | 15 |
| B13 | 5.17 |
| B14 | 67.6 |

target: SARS-CoV-2 Wuhan-Hu-1 spike receptor-binding domain; test: as above

| Binder | ELISA binding EC50 [ng/mL] |
| --- | --- |
| B1 | 2.32 |
| B2 | 2.63 |
| B3 | 3.63 |
| B4 | 2.63 |
| B5 | 2.95 |
| B6 | 3.31 |
| B7 | 2.54 |
| B8 | 2.26 |
| B9 | 2.7 |
| B10 | 1.43 |
| B11 | 7.06 |
| B12 | 2.97 |
| B13 | 1.76 |
| B14 | 2.68 |
